# The supplement of paper PMC9446081
# The whole screen tested about 39,000 compounds, of which about 220 (0.56%) showed activity. Some of the results follow.
# System: Escherichia coli K-12 BW25113
# Experiment: relative growth (OD600 normalised to plate interquartile mean) (fraction); higher = less growth inhibition, active = 0.2 or less
# Conditions: 50 µM; LB; incubation time: overnight (16-24 h)
# 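Also: static incubation at 37 °C against the wild-type strain, values averaged over two biological replicates.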
row,SMILES,relative growth
1,Cc1noc(C)c1NC(=O)Nc1ccc2c(c1)C(=O)N([C@@H](C)CO)C[C@H](C)[C@H](CN(C)S(=O)(=O)c1c(C)noc1C)O2,inactive: 1
2,Cc1ccc(S(=O)(=O)N(C)C[C@@H]2Oc3ccc(NC(=O)Cn4cnnn4)cc3CC(=O)N([C@@H](C)CO)C[C@H]2C)cc1,inactive: 1.01
3,C[C@@H]1CN([C@H](C)CO)C(=O)Cc2cc(NC(=O)CCCCCC(=O)Nc3ccccc3N)ccc2O[C@@H]1CN(C)C(=O)Nc1ccccc1,inactive: 1.02
4,C=CCNC(=O)[C@@H]1[C@H]2C(=O)O[C@H](c3ccccc3)[C@H](c3ccccc3)N2[C@H](c2ccc(OCCO)cc2)[C@@]12C(=O)Nc1ccc(C#CC3=CCCCC3)cc12,inactive: 1.08
5,Cc1noc(C)c1S(=O)(=O)Nc1ccc2c(c1)C(=O)N([C@@H](C)CO)C[C@@H](C)[C@@H](CN(C)Cc1ccc(C(=O)O)cc1)O2,inactive: 1
6,C[C@H](CO)N1C[C@H](C)[C@@H](CN(C)Cc2ccc(Oc3ccccc3)cc2)Oc2ccc(NC(=O)Cc3ccccc3)cc2CC1=O,inactive: 1.03
7,Cn1cc(N2C[C@]3(COCCN(C(=O)C4CC4)C3)OCC2=O)cn1,inactive: 1.02
8,COc1cccc(NC(=O)N[C@@H]2C=C[C@H](CC(=O)N3CCOCC3)O[C@@H]2CO)c1,inactive: 1
9,C[C@@H]1CCCCO[C@@H](CN(C)C(=O)C2CCCCC2)[C@H](C)CN([C@@H](C)CO)C(=O)c2cc(NC(=O)Nc3cccc4ccccc34)ccc2O1,inactive: 1.04
10,Cc1noc(C)c1NC(=O)N(C)C[C@@H]1Oc2cc(C#CCN(C)C)ccc2S(=O)(=O)N([C@H](C)CO)C[C@H]1C,inactive: 1.02
11,C[C@H]1CN([C@@H](C)CO)C(=O)c2cc(C#Cc3ccccc3F)cnc2O[C@@H]1CN(C)S(=O)(=O)c1ccccc1F,inactive: 1.05
12,Cc1ccc(S[C@]2(C(=O)NCCCN(C)C)CC(=O)N(Cc3cc(C(F)(F)F)cc(C(F)(F)F)c3)[C@@H]2c2ccc(CO)cc2)cc1,inactive: 1.02
13,O=C(O)c1ccccc1OP(=O)(O)O,inactive: 0.996
14,C[C@H](CO)N1C[C@H](C)[C@H](CN(C)Cc2ccc(Cl)c(Cl)c2)Oc2c(NS(=O)(=O)c3ccccc3)cccc2C1=O,inactive: 0.988
15,COCC(=O)Nc1ccc2c(c1)OC[C@H](C)N(C(=O)c1ccccc1F)C[C@H](C)[C@H](OC)CN(C)C2=O,inactive: 0.99
16,C[C@H](CO)N1C[C@H](C)[C@@H](CN(C)Cc2ccc(Oc3ccccc3)cc2)Oc2c(NS(=O)(=O)c3ccc(F)cc3)cccc2C1=O,inactive: 0.992
17,C[C@H](CO)N1C[C@H](C)[C@@H](CN(C)S(=O)(=O)c2ccccc2F)Oc2cc(C#Cc3ccccc3)ccc2S1(=O)=O,inactive: 1.07
18,CC(=O)N1[C@H](C(=O)N2CCc3ccccc3C2)[C@@H](CO)[C@@H]2Cn3c(cccc3=O)[C@@H]21,inactive: 0.985
19,C[C@H]1CN([C@@H](C)CO)C(=O)c2cc(NC(=O)CCN3CCOCC3)ccc2O[C@H]1CN(C)C(=O)Nc1ccc2c(c1)OCO2,inactive: 0.99

row,SMILES,relative growth
1,C[C@@H]1CN([C@H](C)CO)C(=O)Cc2cc(NC(=O)CCCCCC(=O)Nc3ccccc3N)ccc2O[C@@H]1CN(C)S(C)(=O)=O,inactive: 0.986
2,CCc1cc(=O)oc2cc(C)c3c(-c4ccccc4)coc3c12,inactive: 1.01
3,COc1ccccc1CN(C)C[C@H]1OCc2ccccc2-c2c(n(C)c3ccccc23)C(=O)N([C@@H](C)CO)C[C@H]1C,inactive: 1.01
4,CN(C)CC#Cc1ccc([C@@H]2[C@H](CO)N3C(=O)CN(C(=O)CN(C)C)C[C@@H]23)cc1,inactive: 1.03
5,C[C@@H]1CN([C@H](C)CO)C(=O)c2cc(N(C)C)ccc2O[C@@H](C)CCCCO[C@@H]1CN(C)S(C)(=O)=O,inactive: 1.04
6,O=C(C[C@@H]1CC[C@H]2[C@@H](COC[C@@H](O)CN2S(=O)(=O)c2ccc(Cl)cc2)O1)N[C@H]1CCN(Cc2ccccc2)C1,inactive: 1.02
7,C[C@@H]1CN([C@@H](C)CO)C(=O)Cc2cc(NC(=O)Nc3ccccc3)ccc2O[C@@H]1CN(C)S(C)(=O)=O,inactive: 0.985
8,COc1ccc2c3c([nH]c2c1)[C@@H](CO)N(C[C@]13CCN(CC1)Cc1nccs1)C(=O)C1CCOCC1,inactive: 1.03
9,C[C@@H]1CCCCO[C@@H](CN(C)CC2CC2)[C@@H](C)CN([C@H](C)CO)C(=O)c2cc(NC(=O)Nc3cccc4ccccc34)ccc2O1,inactive: 0.987
10,CO[C@H]1CN(C)C(=O)c2cc(NS(C)(=O)=O)ccc2OC[C@H](C)N(C(=O)C2CCOCC2)C[C@@H]1C,inactive: 0.954
11,Oc1cc(O)c2c(c1)OC(c1cc(O)c(O)c(O)c1)C(O)C2c1c(O)cc(O)c2c1OC(c1cc(O)c(O)c(O)c1)C(O)C2c1c(O)cc(O)c2c1OC(c1cc(O)c(O)c(O)c1)C(O)C2 (configuration not stated),inactive: 0.985
12,C[C@H](CO)N1C[C@H](C)[C@@H](CN(C)C(=O)Cc2ccccc2)OCCCC[C@H](C)Oc2ccc(NS(=O)(=O)c3ccc(Cl)cc3)cc2C1=O,inactive: 1
13,COc1ccc(NC(=O)Nc2ccc3c(c2)C(=O)N([C@@H](C)CO)C[C@H](C)[C@@H](CN(C)C(=O)Nc2ccc(C(F)(F)F)cc2)O3)cc1,inactive: 1
14,Cc1cc(C(=O)Nc2cccc3c2O[C@H](CN(C)Cc2ccc(Oc4ccccc4)cc2)[C@@H](C)CN([C@H](C)CO)C3=O)n(C)n1,inactive: 0.968
15,C[C@H](CO)N1C[C@H](C)[C@@H](CN(C)C(=O)c2ccccc2)OCCCC[C@H](C)Oc2ccc(NC(=O)c3ccccc3)cc2C1=O,inactive: 1.02
16,CC(C)CC#Cc1ccc2c(c1)O[C@@H](CN(C)C(=O)Cc1cccnc1)[C@H](C)CN([C@H](C)CO)S2(=O)=O,inactive: 0.938
17,C[C@@H]1CCCCO[C@H](CN(C)Cc2ccc(C(=O)Nc3ccccc3N)cc2)[C@@H](C)CN([C@H](C)CO)C(=O)c2cc(NS(=O)(=O)c3ccccc3)ccc2O1,inactive: 1.01
18,Cc1ccc(-c2cnc3c(c2)C(=O)N([C@@H](C)CO)C[C@H](C)[C@@H](CN(C)C(=O)Cc2ccncc2)O3)cc1,inactive: 1
19,COc1ccc(CN(C)C[C@@H]2OCCCC[C@H](C)Oc3ccc(NC(=O)Nc4ccccc4)cc3C(=O)N([C@@H](C)CO)C[C@H]2C)cc1,inactive: 1.04

row,SMILES,relative growth
1,C[C@@H]1CN([C@@H](C)CO)C(=O)c2cccc(NC(=O)Nc3ccc4c(c3)OCO4)c2O[C@@H]1CN(C)S(=O)(=O)c1cn(C)cn1,inactive: 1.01
2,C[C@H](C(=O)N(C)C[C@@H]1OCc2ccccc2-c2c(n(C)c3ccccc23)C(=O)N([C@@H](C)CO)C[C@H]1C)c1ccccc1,inactive: 0.991
3,C[C@H](CO)N1C[C@H](C)[C@@H](CN(C)S(=O)(=O)c2ccccc2F)Oc2ncc(C#Cc3ccccc3F)cc2C1=O,inactive: 1.03
4,Cc1noc(C)c1NC(=O)Nc1ccc2c(c1)CC(=O)N([C@H](C)CO)C[C@@H](C)[C@@H](CN(C)S(C)(=O)=O)O2,inactive: 1.01
5,COc1ccc2c3c(n(c2c1)C)[C@@H](CO)N(Cc1cc(cc(c1)OC)OC)C[C@]13CCN(CC1)C(=O)CN1CCOCC1,inactive: 0.861
6,COc1ccc(S(=O)(=O)N(C)C[C@@H]2Oc3ccc(NS(=O)(=O)c4cccs4)cc3C(=O)N([C@@H](C)CO)C[C@@H]2C)cc1,inactive: 1.01
7,C[C@@H]1CCCCO[C@H](CN(C)C(=O)Nc2ccccc2)[C@@H](C)CN([C@H](C)CO)C(=O)c2cc(NC(=O)C3CCCCC3)ccc2O1,inactive: 1.01
8,C[C@H](CO)N1C[C@H](C)[C@H](CN(C)Cc2ccc3c(c2)OCO3)Oc2ccc(NS(=O)(=O)c3ccccc3)cc2CC1=O,inactive: 1.01
9,O=C(CN1CCOCC1)NCC[C@H]1CC[C@@H](NS(=O)(=O)c2ccc(Cl)cc2)[C@@H](CO)O1,inactive: 0.988
10,C[C@@H]1CCCCO[C@@H](CN(C)C(=O)C2CCCCC2)[C@@H](C)CN([C@H](C)CO)C(=O)c2cc(NC(=O)CCCCCC(=O)Nc3ccccc3N)ccc2O1,inactive: 0.965
11,O=C(C[C@H]1C=C[C@H](NC(=O)C2CCC2)[C@H](CO)O1)NCCCN1CCOCC1,inactive: 1.04
12,Cc1noc(C)c1S(=O)(=O)Nc1ccc2c(c1)C(=O)N([C@@H](C)CO)C[C@H](C)[C@H](CN(C)Cc1ccccc1)OCCCC[C@@H](C)O2,inactive: 1.01
13,C[C@@H]1CN([C@H](C)CO)C(=O)c2cc(NC(=O)Nc3cccc4ccccc34)ccc2O[C@@H]1CN(C)CC1CCCCC1,inactive: 1
14,COc1ccc(NC(=O)N(C)C[C@H]2OCCCC[C@@H](C)Oc3ccc(NS(=O)(=O)c4ccc(Cl)cc4)cc3C(=O)N([C@H](C)CO)C[C@H]2C)cc1,inactive: 1
15,COc1ccc(NC(=O)N(C)C[C@H]2Oc3ncc(C#CCN(C)C)cc3C(=O)N([C@H](C)CO)C[C@@H]2C)cc1,inactive: 0.978
16,COCC(=O)Nc1ccc2c(c1)OC[C@@H](C)N(C(=O)Nc1ccccc1F)C[C@@H](C)[C@H](OC)CN(C)C2=O,inactive: 1.02
17,C[C@@H]1CN([C@H](C)CO)C(=O)c2cccc(NC(=O)c3ccc(-c4nccs4)cc3)c2O[C@H]1CN(C)Cc1ccc(C(F)(F)F)cc1,inactive: 1
18,C[C@@H]1CN([C@H](C)CO)C(=O)Cc2cc(NC(=O)Cn3cnnn3)ccc2O[C@H]1CN(C)S(=O)(=O)c1ccc(F)cc1,inactive: 1.01
19,COCC(=O)Nc1ccc2c(c1)OC[C@@H](C)N(C(=O)c1ccccc1F)C[C@H](C)[C@H](OC)CN(C)C2=O,inactive: 0.969
